{"source": "PubChem BioAssay AID624417", "about": "(National Center for Advancing Translational Sciences (NCATS), 2012)", "note": "The whole screen tested about 410,000 compounds, of which about 6,400 (1.6%) were called active. The inconclusive results got no clear call from the source; some entries with a clear call stand among them for comparison. Calls follow the shape of the dose curve; as a rule, active = well fitted inhibition curve with a large enough effect; inconclusive = small, poorly fitted or top-dose-only effect; inactive = no such curve, though single readings can be large or run the other way. No potency is given beside an inconclusive call; the fits are too rough. % is scaled to controls: 0 for no effect and ±100 for the full control effect; potency is read from the fitted curve at half-maximal effect; tags tell the direction and shape of the fitted curve.", "data": [{"biological_target": "Glucagon-like peptide 1 receptor (Homo sapiens) (UniProt P43220)", "sequence (P43220 whole entry, looked up)": "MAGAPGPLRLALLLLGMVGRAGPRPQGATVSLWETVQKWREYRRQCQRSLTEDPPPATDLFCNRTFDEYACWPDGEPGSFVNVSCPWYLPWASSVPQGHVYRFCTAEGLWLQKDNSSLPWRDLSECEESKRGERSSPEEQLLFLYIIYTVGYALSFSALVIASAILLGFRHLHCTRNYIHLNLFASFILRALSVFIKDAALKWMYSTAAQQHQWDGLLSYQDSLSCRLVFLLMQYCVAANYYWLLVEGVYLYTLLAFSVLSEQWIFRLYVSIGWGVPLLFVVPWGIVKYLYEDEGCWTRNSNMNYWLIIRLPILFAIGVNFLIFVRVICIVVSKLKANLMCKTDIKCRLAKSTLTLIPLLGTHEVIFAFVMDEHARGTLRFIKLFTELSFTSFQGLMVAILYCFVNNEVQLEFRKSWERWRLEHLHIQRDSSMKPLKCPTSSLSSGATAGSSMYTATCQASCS", "test": "qHTS of GLP-1 Receptor Inverse Agonists (Inhibition Mode); also: nearly all actives have a fitted effect of over 55% in size", "conditions": "HEK293 GLP-1R CRE-luciferase, luminescence, 24 h, GLP-1R form is constitutively active; activity change, negative = inhibition: at 38.3 µM (top of the series) unless noted", "method_in_brief": "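Seeding at 200 cells/uL, 12 h culture, 24 hr compound treatment, then luciferase reagent and a luminescence read; cells are HEK293 stably expressing a constitutively active GLP-1R plus cAMP-responsive luciferase.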", "values": [{"smiles": "Cc1ccccc1C(=O)N1CCC(C(=O)Nc2cccc(F)c2)CC1", "Potency": "inconclusive [inhibitor, partial curve, poor fit]"}, {"smiles": "Cc1[nH]n(C(N)=S)c(=O)c1N=Nc1ccc2ccccc2c1", "Potency": "inconclusive [inhibitor, full curve, poor fit]"}, {"smiles": "COc1ccc(-c2cn3nc(N4CCCC(C(=O)Nc5ccccc5F)C4)sc3n2)cc1", "note": "(centres undefined)", "activity change, negative = inhibition": "inactive: 14.3%"}, {"smiles": "Cc1cc(Nc2ncc(Cl)cc2Cl)n(-c2ccccc2)n1", "Potency": "inconclusive [inhibitor, single point]"}, {"smiles": "NC(=O)NNC1=Nc2cccc3cccc1c23", "activity change, negative = inhibition": "inactive: 17.1%"}, {"smiles": "CCCCN(CCCNC(=O)c1cc(Nc2ccc(OC)cc2OC)nc2ccccc12)Cc1ccccc1", "Potency": "inconclusive [inhibitor, partial curve, poor fit]"}, {"smiles": "CC(C)(C)C(=O)Nc1scc(-c2ccc(-c3ccccc3)cc2)c1C(=O)O", "Potency": "inconclusive [inhibitor, partial curve, poor fit]"}, {"smiles": "CCCCC(=O)Nc1cccc(NC(=S)NC(=O)C(C)C)c1", "Potency": "inconclusive [inhibitor, single point]"}, {"smiles": "CCCCOC(=O)c1ccc(NC(=O)C2(c3cccs3)CCOCC2)cc1", "Potency": "inconclusive [inhibitor, partial curve, poor fit]"}, {"smiles": "COc1ccc(NC(=O)CSc2nc(-c3ccccc3)cc(-c3cc(OC)c(OC)c(OC)c3)c2C#N)c(OC)c1", "activity change, negative = inhibition": "inactive: -2.08%"}, {"smiles": "CCOC(=O)c1c(NC(=O)CSc2cn(CCNC(=O)c3ccc(OC)cc3)c3ccccc23)sc2c1CCC2", "Potency": "inconclusive [inhibitor, single point]"}, {"smiles": "CCn1c(=O)cc(SCC(=O)N2CCN(c3ccccn3)CC2)c2ccccc21", "Potency": "inconclusive [inhibitor, partial curve, poor fit]"}, {"smiles": "CCC(=NCCc1c(C)[nH]c2ccccc12)C1=C(O)CC(c2ccccc2)CC1=O", "note": "(centres undefined)", "Potency": "inconclusive [inhibitor, partial curve, poor fit]"}, {"smiles": "c1ccc2[nH]c(CN3CCN(c4ncnc5c4oc4ccccc45)CC3)nc2c1", "Potency": "inconclusive [inhibitor, single point]"}, {"smiles": "CC(C)(C)[C@@H]1CCC(=O)N(CC[C@H](Sc2ccc(Br)cc2)c2ccccc2)CC1", "Potency": "inconclusive [inhibitor, partial curve, poor fit]"}, {"smiles": "Cc1cc(C)cc(NC(=O)Cn2c(-c3ccccc3Cl)nc3ccccc32)c1", "Potency": "inconclusive [inhibitor, single point]"}, {"smiles": "O=C(C1CCCCC1)N1CCCC(c2nc(-c3ccc(F)cc3)no2)C1", "note": "(centres undefined)", "Potency": "inconclusive [inhibitor, single point]"}, {"smiles": "O=C(O)c1ccc(N2C(=O)/C(=C/C=C/c3ccccc3)SC2=S)cc1", "activity change, negative = inhibition": "inactive: 4.6%"}, {"smiles": "O=C(CCCC(=O)OCC(Cl)=C(Cl)Cl)Nc1cccc2ccccc12", "Potency": "inconclusive [inhibitor, partial curve, poor fit]"}, {"smiles": "O=C1C2C3c4ccccc4C(c4ccccc43)C2C(=O)N1c1nc(-c2ccccc2)cs1", "note": "(centres undefined)", "activity change, negative = inhibition": "inactive: -3.08%"}, {"smiles": "COc1ccc(Cl)cc1NC(=O)C1CCCN(S(=O)(=O)c2ccc3c(c2)CCCC(=O)N3)C1", "note": "(centres undefined)", "activity change, negative = inhibition": "inactive: 12.1%"}, {"smiles": "COc1ccc(C)cc1N=Nc1ccc(O)c2ncccc12", "Potency": "inconclusive [inhibitor, partial curve, poor fit]"}, {"smiles": "Cc1ccc(CNC(=O)c2ccc3oc(=O)n(Cc4ccccc4)c3c2)cc1", "Potency": "inconclusive [inhibitor, single point]"}, {"smiles": "CCN1CCN(Cc2c3ccccc3cc3ccccc23)CC1", "Potency": "inconclusive [inhibitor, single point]"}, {"smiles": "COc1ccc(Cc2cc(NCc3ccccc3)c3ncn(C(C)C)c3c2)cc1", "Potency": "inconclusive [inhibitor, partial curve, poor fit]"}, {"smiles": "Cc1nn(-c2ccccc2)c2c1N(CCCC(=O)NCc1ccc(OC(C)C)cc1)C(=O)CS2", "Potency": "inconclusive [inhibitor, single point]"}, {"smiles": "Cc1ccc2c(CC(=O)Nc3ccc(S(=O)(=O)N4CCC(C)CC4)cc3)coc2c1", "Potency": "inconclusive [inhibitor, partial curve, poor fit]"}, {"smiles": "CN(C)c1nc(SCc2ccccc2Cl)nc2c1CCCC2", "Potency": "inconclusive [inhibitor, partial curve, poor fit]"}, {"smiles": "CC(C)(C)c1ccc(-n2ncc3c2CCCC3NC(=O)CCN2CCCO2)cc1", "note": "(centres undefined)", "Potency": "inconclusive [inhibitor, partial curve, poor fit]"}, {"smiles": "CCCCc1ccc(NC(=O)CSc2nc(=O)n(CCN(CC)CC)c3c2CCC3)cc1", "Potency": "inconclusive [inhibitor, partial curve]"}, {"smiles": "CCc1ccccc1NC(=O)Cn1nc(-c2cc(C)ccc2C)c2c(c1=O)CCCC2", "activity change, negative = inhibition": "inactive: 1.14%"}, {"smiles": "O=C(O)CC(Cc1ccc(Cl)cc1)C(=O)Nc1cc(Cl)ccc1Cl", "note": "(centres undefined)", "Potency": "inconclusive [inhibitor, full curve]"}, {"smiles": "C=CCOC(=O)C1=C[C@@H](c2ccc(Br)cc2)[C@H](CCCO)[C@@H](OCC)O1", "Potency": "inconclusive [inhibitor, single point]"}, {"smiles": "COc1ccc(-c2cc([C@H]3[C@H]4C=CC[C@@H](C)[C@@H]4C(=O)N3Cc3ccccc3)ccc2F)cc1OC", "activity change, negative = inhibition": "inactive: 19.7%"}, {"smiles": "CCOC(=O)C1(Cc2ccc(Cl)cc2)CCN(C(=O)CCc2ccncc2)CC1", "Potency": "inconclusive [inhibitor, partial curve, poor fit]"}, {"smiles": "COc1ccccc1OCCNC(=O)C1CC(=O)N(c2cccc(SC)c2)C1", "note": "(centres undefined)", "Potency": "inconclusive [inhibitor, partial curve]"}, {"smiles": "O=C(CSc1n[nH]c(=O)n1C1CC1)c1ccc(F)cc1", "activity change, negative = inhibition": "inactive: -0.931%"}, {"smiles": "CCCn1c2ccccc2c2cnn(CC(=O)Nc3ccccc3OC)c(=O)c21", "activity change, negative = inhibition": "inactive: -18.6%"}, {"smiles": "O=C1C2C3C=CC(CC3)C2C(=O)N1c1ccc(Cl)cc1", "note": "(centres undefined)", "Potency": "inconclusive [inhibitor, partial curve, poor fit]"}, {"smiles": "COc1ccc(CC(=O)NCc2ccccc2)cc1", "Potency": "inconclusive [inhibitor, partial curve, poor fit]"}, {"smiles": "O=C(C1CC1)N1CCc2cc(Br)c(S(=O)(=O)N3CCCCCC3)cc21", "Potency": "inconclusive [inhibitor, partial curve, poor fit]"}, {"smiles": "O=c1cc(-c2ccccc2Cl)oc2c(NS(=O)(=O)c3ccccc3OC(F)(F)F)ccc(O)c12", "Potency": "inconclusive [inhibitor, single point]"}, {"smiles": "CCOC(=O)c1sc(NC(=O)Nc2cccc(Cl)c2)cc1C", "Potency": "active: 3.55 µM"}, {"smiles": "CNCCCC1Sc2ccccc2Oc2ccccc21", "note": "(centres undefined)", "Potency": "active: 5.01 µM"}, {"smiles": "Cc1ccc(C(=O)COC(=O)CN2C(=O)C3C4CC(C(Br)C4Br)C3C2=O)cc1", "note": "(centres undefined)", "Potency": "inconclusive [inhibitor, single point]"}, {"smiles": "Cc1cccc(NC(c2cccc(Cl)c2)c2ccc3cccnc3c2O)n1", "note": "(centres undefined)", "Potency": "inconclusive [inhibitor, full curve, poor fit]"}, {"smiles": "CC1CCCCN1C(=O)/C(=C\\c1ccccc1)c1ccccc1", "note": "(centres undefined)", "Potency": "inconclusive [inhibitor, partial curve, poor fit]"}, {"smiles": "Cc1ccccc1-c1nnc(Cc2ccccc2)o1", "activity change, negative = inhibition": "inactive: 7.34%"}, {"smiles": "C[C@@H]1CN([C@@H](C)CO)C(=O)c2cc(-c3ccccc3F)cnc2O[C@H]1CN(C)Cc1cccc(F)c1", "Potency": "inconclusive [inhibitor, single point]"}, {"smiles": "CCOc1ccc(-n2cc(-c3ccccc3)c3c(=O)[nH]cnc32)cc1", "Potency": "inconclusive [inhibitor, partial curve, poor fit]"}, {"smiles": "O=Nc1ccc(O)c2ncccc12", "Potency": "inconclusive [inhibitor, single point]"}, {"smiles": "Cc1ccc(S(=O)(=O)N(Cc2ccc(Cl)cc2)c2ccccc2C(=O)NCc2cccnc2)cc1", "Potency": "inconclusive [inhibitor, single point]"}, {"smiles": "CC(SC1=NCCN1S(=O)(=O)c1ccc(F)cc1)c1ccccc1", "note": "(centres undefined)", "Potency": "inconclusive [inhibitor, single point]"}, {"smiles": "COc1ccc(NC(=O)CCN2CCCCCC2)c(OC)c1", "activity change, negative = inhibition": "inactive: -0.587%"}, {"smiles": "O=S(=O)(c1ccc(OCC(O)CN2CCN(c3ccccc3O)CC2)cc1)N1CCOCC1", "note": "(centres undefined)", "activity change, negative = inhibition": "inactive: 0%"}, {"smiles": "CCOc1ccc(NC(=O)CSc2nnc3c(C)cc4ccccc4n23)cc1", "activity change, negative = inhibition": "inactive: -5.8%"}, {"smiles": "O=C(N/N=C/c1cccc([N+](=O)[O-])c1O)C(O)(c1ccccc1)c1ccccc1", "Potency": "inconclusive [inhibitor, partial curve, poor fit]"}, {"smiles": "COc1ccccc1NC(=S)NC(=O)CCc1ccccc1", "Potency": "inconclusive [inhibitor, partial curve, poor fit]"}, {"smiles": "CC(C)c1ccc(/C=C2\\NC(=S)N(Cc3cccnc3)C2=O)cc1", "Potency": "inconclusive [inhibitor, full curve, poor fit]"}, {"smiles": "Cc1c(C(=O)NCC2COc3ccccc3O2)oc2ccc(S(=O)(=O)N(C)C3CCCCC3)cc12", "note": "(centres undefined)", "Potency": "inconclusive [inhibitor, single point]"}, {"smiles": "COc1ccc2sc(NC(=O)CC(C)C)nc2c1", "activity change, negative = inhibition": "inactive: 0%"}, {"smiles": "Cc1ccc2c(Cl)cc(Cl)c(OCC(=O)Nc3cc(S(=O)(=O)N(C)C)ccc3C)c2n1", "Potency": "inconclusive [inhibitor, single point]"}, {"smiles": "COc1ccc(-c2c3c(=O)n(C)c(=O)n(C)c3c3n2-c2ccccc2NC3c2ccccc2OC)cc1", "note": "(centres undefined)", "activity change, negative = inhibition": "inactive: 4.15%"}, {"smiles": "FCCCOc1ccc(/C=N/OCc2c(Cl)cccc2Cl)cc1", "Potency": "inconclusive [inhibitor, partial curve, poor fit]"}]}]}
